The whole screen tested about 310,000 compounds, of which about 11,000 (3.5%) were called active. The inconclusive results got no clear call from the source; some entries with a clear call stand among them for comparison. The call rests on the fitted dose curve; in most records, active means well fitted inhibition curve with a large enough effect; inconclusive means small, poorly fitted or top-dose-only effect, or effect the other way; inactive means flat fitted curve, though single readings scatter. No potency is given beside an inconclusive call; the fits are too rough.
Assay: VP16 counterscreen qHTS for inhibitors of ROR gamma transcriptional activity;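 further: Gal4-VP16 expression switched on by copper sulfate through the metallothionein promoter; nearly all actives have a fitted effect of over 50% in size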
Conditions: Drosophila S2 Gal4-VP16 UAS-luciferase, luminescence, 20 h; activity, negative = inhibition: at 53.6 µM (top of the series)
On the % scale 0 is the no-effect control and ±100 the full control effect; potency means the concentration at half of the fitted maximal effect; tags describe the fitted curve by direction and shape.

Row | Compound | Potency | activity, negative = inhibition
1 | COc1ccc(C(=O)C2CCCN(Cc3cccn3-c3ccc(Cl)cn3)C2)c(OC)c1 (stereo not drawn) | inconclusive [inhibitor, single point] | 
2 | O=C(Nc1nnc(C(F)(F)F)s1)c1ccc(Br)s1 | inconclusive [inhibitor, single point] | 
3 | COc1ccc2c(c1)c(C(O)CN1CCN(Cc3ccc4c(c3)OCO4)CC1)c(C)n2C (stereo not drawn) |  | inactive: -3.29%
4 | CC/C(=N\NC(=O)c1c(C)nc2ccccn12)c1ccc(Cl)cc1 | inconclusive [inhibitor, single point] | 
5 | CN(Cc1cn(C)nc1-c1ccc(Oc2ccccc2)cc1)Cc1cnc2ccccn12 | inconclusive [inhibitor, single point] | 
6 | Cc1ccc(C2(c3noc(CN(C)Cc4ccccn4)n3)CCCC2)cc1 |  | inactive: -0.896%
7 | O=C1NCCCc2c1oc1ccc(O)cc21 | inconclusive [inhibitor, partial curve, poor fit] | 
8 | CCN(CC)S(=O)(=O)c1ccc(C(=O)Nc2ccc(Cc3ccncc3)cc2)cc1 | active: 3.55 µM | 
9 | CCOC(=O)/C(C#N)=C/c1cc2ccccc2nc1N1CCOCC1 | inconclusive [activator, single point] | 
10 | COc1cc(/C=C/c2ccc3c(Br)cc(Br)c(O)c3n2)ccc1O | active: 0.316 µM | 
11 | Cc1ccc(NC(=S)Nc2cc(-c3ccccc3)[nH]n2)cc1Cl | active: 2.24 µM | 
12 | CCOC(=O)c1ccc(NC(=S)N2CCCC(C)C2)cc1 (stereo not drawn) | inconclusive [inhibitor, single point] | 
13 | Cc1ccc(/C=C2\SC(=S)N(CCCC(=O)NC3CCCC3)C2=O)cc1 | inconclusive [inhibitor, full curve, poor fit] | 
14 | CCOc1cc(/C=N/NC(=O)CNc2ccc(C)cc2)ccc1OC(=O)c1ccccc1 |  | inactive: 1.3%
15 | CC(C)c1nc2sc3c(=S)nc[nH]c3c2c2c1CCC2 | inconclusive [inhibitor, single point] | 
16 | CCN=C1NN=C(c2cc(C)n(Cc3ccco3)c2C)CS1 | inconclusive [inhibitor, full curve] | 
17 | COCCNc1nc2c(-c3cccc(C(F)(F)F)c3)nnn2c2ccccc12 |  | inactive: 11.5%
18 | CCOC(=O)CC(=O)CSc1nc2c(c(C)c1C#N)CCC2 | inconclusive [inhibitor, partial curve, poor fit] | 
19 | CCCOc1cccc(C2C(C(=O)c3ccc(C)o3)=C(O)C(=O)N2CCN2CCOCC2)c1 (stereo not drawn) |  | inactive: 2.93%
20 | C/C(=N\NC(=O)c1cc(-c2cccc([N+](=O)[O-])c2)n[nH]1)c1ccccc1O | active: 17.8 µM | 
21 | CC1Cc2ccccc2N1C(=O)c1ccc(N2CCCC2)c([N+](=O)[O-])c1 (stereo not drawn) | inconclusive [inhibitor, single point] | 
22 | COC(=O)c1cc(=O)n(-c2ccccc2)c(=Nc2ccccc2)s1 | inconclusive [inhibitor, single point] | 
23 | C=COCCCNc1ncnc2sc(-c3ccccc3)cc12 | inconclusive [inhibitor, partial curve] | 
24 | Cc1cc(C(=O)COC(=O)c2ccccc2NCCO)c(C)n1CC1CCCO1 (stereo not drawn) | active: 1.58 µM | 
25 | O=C1C=C(NCCN2CCOCC2)C(=O)c2cnccc21 | inconclusive [inhibitor, single point] | 

Row | Compound | Potency | activity, negative = inhibition
26 | CCCN(CCC)CCCNC(=O)c1cc2c(-c3ccc(OC)c(OC)c3)nn(C)c2s1 |  | inactive: -14.6%
27 | O=C1c2cccc3cccc(c23)C(=O)N1c1nccs1 |  | inactive: -4.17%
28 | COc1ccc2oc(=O)c(C(=O)Nc3ccccc3O)cc2c1 | inconclusive [inhibitor, single point] | 
29 | CCN1CCN(CCNC(=O)c2ccc3nc(-c4cccc(C)c4)c(-c4cccc(C)c4)nc3c2)CC1 | inconclusive [inhibitor, single point] | 
30 | Fc1ccccc1/C=N/n1c(COc2ccccc2)n[nH]c1=S | inconclusive [inhibitor, partial curve] | 
31 | COc1ccc(N2C(=O)CC(Sc3nc4ccccc4s3)C2=O)cc1 (stereo not drawn) | inconclusive [inhibitor, single point] | 
32 | Cc1cccc(NC(=S)NCc2ccc3c(c2)OCO3)c1 | active: 15.8 µM | 
33 | CCNC(=O)C(=O)NCC1OCCCN1S(=O)(=O)c1cccs1 (stereo not drawn) | inconclusive [activator, single point] | 
34 | Cc1ccc(-c2nn(-c3ccccc3)cc2/C=C2\SC(=S)N(CCCCCC(=O)O)C2=O)o1 | inconclusive [inhibitor, single point] | 
35 | COc1ccc(N2CCN(CCCNC(=O)c3ccc(CS(=O)(=O)c4ccc(OC)cc4)o3)CC2)cc1 |  | inactive: -3.56%
36 | O=C(NCCCc1ccccc1)Nc1cccc(Cl)c1 | inconclusive [inhibitor, single point] | 
37 | O=C(c1cccc(F)c1)N1CCC[C@@]2(CCN(c3ccccc3)C2)C1 | inconclusive [inhibitor, single point] | 
38 | Cc1ccc(S(=O)(=O)CNC(=S)c2cccc(Cl)c2)cc1 | inconclusive [inhibitor, single point] | 
39 | OCCN1CCN(Cc2nc(-c3cccc(Cl)c3)no2)CC1 | inconclusive [activator, single point] | 
40 | CCNC(=O)CCc1nc(-c2ccc(C(C)(C)C)cc2)no1 | active: 2.51 µM | 
41 | O=C(NNC(=S)NC(=O)c1ccccc1Cl)c1cccc([N+](=O)[O-])c1 | inconclusive [inhibitor, single point] | 
42 | CC(NS(=O)(=O)c1ccc(Br)s1)c1ccccc1 (stereo not drawn) |  | inactive: 2.37%
43 | Cc1ncc(CO)c(/C=N/Nc2ccc(C(F)(F)F)cn2)c1O | active: 15.8 µM | 
44 | COc1cc(-c2n[nH]c(=S)n2-c2ccccc2C(F)(F)F)cc(OC)c1OC |  | inactive: -7.78%
45 | Cc1c(C)n(Cc2ccc(Cl)cc2)c2ccc(C(=O)NCCN3CCOCC3)cc12 |  | inactive: 3.13%
46 | Cc1cc(C)c(S(=O)(=O)Nc2ccc3c4c(cccc24)CC3)c(C)c1 | inconclusive [inhibitor, partial curve] | 
47 | O=C(OCc1nc2ccc(Cl)cc2n1CCO)c1ccccc1 | inconclusive [activator, single point] | 
48 | Cc1cc(NC(=S)N(CCCN2CCOCC2)Cc2ccco2)ccc1Cl | inconclusive [inhibitor, single point] | 
49 | Nn1cnnc1N/N=C/c1cc(Br)cc(Br)c1O | active: 12.6 µM | 
50 | O=C1CCCC2=C1C(c1ccccc1)C1C(=O)c3ccccc3C1=N2 (stereo not drawn) | inconclusive [inhibitor, single point] | 

Row | Compound | Potency | activity, negative = inhibition
51 | Cc1cccc(/C=N/NC(=O)c2ccc3c(c2)OCCO3)c1O | active: 2.51 µM | 
52 | CCCCCOc1ccc(C(=O)CCC(=O)N2CCCC2)cc1 |  | inactive: -3.49%
53 | COc1ccc(CNc2ncnc3sccc23)cc1 | inconclusive [inhibitor, partial curve] | 
54 | COc1ccccc1CNC(=S)NC1CCCC1 | active: 7.08 µM | 
55 | CC(=O)c1cnc(Nc2nc(C)c3ccc(C)cc3n2)nc1C | inconclusive [inhibitor, partial curve, poor fit] | 
56 | COc1ccc(/C=C\C(=O)NCC(=O)N/N=C/c2cccc(OC)c2O)cc1 | active: 7.94 µM | 
57 | Cc1ccc(C)c(NC(=S)NCc2ccc3[nH]c4c(c3c2)CCCC4)c1 | active: 6.31 µM | 
58 | CCn1c(-c2cc(-c3ccccc3)sc2N)n[nH]c1=S | active: 12.6 µM | 
59 | Nc1ccc(O)c2c(=O)cc(-c3ccccc3Cl)oc12 | inconclusive [activator, single point] | 
60 | Cc1cc(=O)n2c3c(sc2n1)C(=O)N(Cc1ccccc1)C3=O | inconclusive [inhibitor, single point] | 
61 | C1=C(c2ccccc2)CCN(c2ncnc3nc[nH]c23)C1 | inconclusive [inhibitor, partial curve] | 
62 | O=C(CCS(=O)(=O)c1cccs1)Nc1ccc(C(=O)NCc2cccs2)cc1 | inconclusive [inhibitor, single point] | 
63 | Cc1ccccc1C(=O)Nc1nnc(-c2ccncc2)o1 | active: 5.01 µM | 
64 | CCn1c(SCCC#N)nnc1-c1ccncc1 |  | inactive: 12.7%
65 | COCCCN1C(=O)c2[nH]nc(-c3ccccc3O)c2C1c1cccc(Cl)c1 (stereo not drawn) | inconclusive [inhibitor, single point] | 
66 | CCOc1cc(Br)c(CN2C(=O)NC3(CCCCCC3)C2=O)cc1OCC |  | inactive: -12.5%
67 | O=C(C[n+]1cc(Br)cc2ccccc21)c1ccc(Br)cc1 | inconclusive [inhibitor, single point] | 
68 | CCOc1cc(/C=N/NC(=O)COc2ccc(Cl)cc2)ccc1OS(=O)(=O)c1ccccc1 | inconclusive [inhibitor, single point] | 
69 | CC(=O)C12OC1CC1C3CCC4=CC(=O)CCC4(C)C3CCC12C (stereo not drawn) |  | inactive: 1.26%
70 | Cc1c2ccccc2c(C)c2c1ccc1ccccc12 | inconclusive [inhibitor, single point] | 
71 | CC1CC(C)(C)NC(=S)N1CCCC(=O)Nc1ccc(F)cc1 (stereo not drawn) | inconclusive [inhibitor, single point] | 
72 | COC(=O)[C@@]1(Cc2ccc(F)cc2)[C@@H]2[C@@H](CC(=O)[C@H]2CC(=O)C(=O)N2CCCC2)CN1C(=O)c1ccccc1 | inconclusive [inhibitor, single point] | 
73 | S=C(NCc1ccc2c(c1)OCO2)NCc1ccco1 | inconclusive [inhibitor, single point] | 

— PubChem BioAssay AID2546 (National Center for Advancing Translational Sciences (NCATS), 2010)
